The list shows a part of the results. For some of these results: At the low end of the ranking the order means little.

The first experiment relates to RARa:RXRa. The settings on record: 270 nM : 90 nM RXRa, PBS pH 7.4, 2% milk, 0.02% Triton X-100, 1 mM DTT, BSA, 0.4 mg/ml salmon testes DNA; double strand, one strand shown.
“GCACTATCAGTTGACTTAGGGCAACCGATACGACGCGCGATTGACAGCGTAGAATGAAGG” had a binding signal (PBM z-score against 500 random probes) of 0.47.

Consider “GCTCTCGGAGGACACGAAGGTCTGAGCTTTCCAGAGGCGATTGACAGCGTAGAATGAAGG”, for which the binding signal (PBM z-score against 500 random probes) came out at 0.11.

Regarding “GCACTAGCAGGCCAAGTTTGGTTCACTCAAACAAAGGCGATTGACAGCGTAGAATGAAGG”, the binding signal (PBM z-score against 500 random probes) worked out at 0.11.

As to “GCTCGAGTAGGTTACGGGCGCATTCAGGGATGAAGAGCGATTGACAGCGTAGAATGAAGG”, the binding signal (PBM z-score against 500 random probes) worked out at 0.35.

The sequence “GCACTAGCAGGCCAAGTTTCGGTCACTCAAACAAAGGCGATTGACAGCGTAGAATGAAGG” yielded a binding signal (PBM z-score against 500 random probes) of 0.02.

“GCTCTAGCAGGCCAGAGGTTCACTCAAGAGGTACGGGCGATTGACAGCGTAGAATGAAGG” came in with a binding signal (PBM z-score against 500 random probes) of 0.32.

Regarding “GCCCAGACAGGTGAGAGGGTAACTCAGCCTCGATTAGCGATTGACAGCGTAGAATGAAGG”, the binding signal (PBM z-score against 500 random probes) was determined as 0.44.

For the sequence “GCCCTATTAGTTGACCATAGGGGCAACCGAAGCTCGGCGATTGACAGCGTAGAATGAAGG”, the binding signal (PBM z-score against 500 random probes) is 0.45.

Sequence “GCTCTAGCAGGCCAGAGTGTCACTCAAGAGGTACGGGCGATTGACAGCGTAGAATGAAGG” showed a binding signal (PBM z-score against 500 random probes) of 0.14.

In turn, “GCTCGAGTAGGTTAGTCGGGGCATTAAGCCAACATAGCGATTGACAGCGTAGAATGAAGG” registered a binding signal (PBM z-score against 500 random probes) of 0.47.

The sequence “GCCGAACTCGGTCATTGACAGGACAGTGAATAGTAAGCGATTGACAGCGTAGAATGAAGG” gave a binding signal (PBM z-score against 500 random probes) of 0.44.

The sequence “GCAGAATCAGGTTACCAAAGATCAGGGAAACGCTTGGCGATTGACAGCGTAGAATGAAGG” came in with a binding signal (PBM z-score against 500 random probes) of 0.36.

The sequence “GCCGAACTAGGTCAGAACAGCACAGTGAAGGATGATGCGATTGACAGCGTAGAATGAAGG” had a binding signal (PBM z-score against 500 random probes) of 0.42.

Sequence “GCTCTTGTAGATCAGCAGGTTAACAAAGCTGGCCAAGCGATTGACAGCGTAGAATGAAGG” came in with a binding signal (PBM z-score against 500 random probes) of 0.49.

In turn, “GCAGTCAAAGTGCACTAGGTAACGTAAGATTCAGCTGCGATTGACAGCGTAGAATGAAGG” registered a binding signal (PBM z-score against 500 random probes) of 0.32.

Sequence “GCCCGACTGGGGCAAGTTTACCATAACGCACAGCCAGCGATTGACAGCGTAGAATGAAGG” came in with a binding signal (PBM z-score against 500 random probes) of 0.04.

In turn, “GCTCTTGTAGATCGACAGGAGGTTAAGAAAGATCGAGCGATTGACAGCGTAGAATGAAGG” came in with a binding signal (PBM z-score against 500 random probes) of 0.46.

“GCATCTCTAGGTAAGGCTCAGTTCAGTGAAGAACGCGCGATTGACAGCGTAGAATGAAGG” registered a binding signal (PBM z-score against 500 random probes) of 0.5.

On to “GCGCTAGCAAGCCATTTGGGTCACTCAATGACGGGCGCGATTGACAGCGTAGAATGAAGG”, for which the binding signal (PBM z-score against 500 random probes) worked out at 0.48.

Regarding “GCAGAATTAGGTTACCAAAGATCAGGGAAACGCTTGGCGATTGACAGCGTAGAATGAAGG”, the binding signal (PBM z-score against 500 random probes) stood at 0.34.

Another experiment deals with T1, RARb (Homo sapiens) (UniProt P10826).
T1 sequence: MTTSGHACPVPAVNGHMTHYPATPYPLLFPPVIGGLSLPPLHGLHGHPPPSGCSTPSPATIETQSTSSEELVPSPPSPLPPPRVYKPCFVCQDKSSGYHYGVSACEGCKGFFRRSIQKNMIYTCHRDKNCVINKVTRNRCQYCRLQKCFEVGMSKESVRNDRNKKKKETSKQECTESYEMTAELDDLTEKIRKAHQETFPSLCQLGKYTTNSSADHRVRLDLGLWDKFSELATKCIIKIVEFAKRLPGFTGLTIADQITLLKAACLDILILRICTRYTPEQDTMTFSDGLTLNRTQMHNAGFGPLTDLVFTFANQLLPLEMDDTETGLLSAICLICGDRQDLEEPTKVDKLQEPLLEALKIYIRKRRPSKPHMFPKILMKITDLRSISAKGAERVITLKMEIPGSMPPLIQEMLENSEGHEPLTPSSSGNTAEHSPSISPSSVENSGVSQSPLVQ
The settings on record: 270 nM, no RXRa, PBS pH 7.4, 2% milk, 0.02% Triton X-100, 1 mM DTT, BSA, 0.4 mg/ml salmon testes DNA; double strand, one strand shown.
On to “GCCTGCCTCAGCCTCCCGAGTAGCTGGGATTACAGAGCGATTGACAGCGTAGAATGAAGG”, for which the binding signal (PBM z-score against 500 random probes) is -0.7.

Sequence “GCGTAAGACACCTTCCTAGGAAGAGAACAGCAGAATGCGATTGACAGCGTAGAATGAAGG” showed a binding signal (PBM z-score against 500 random probes) of -0.55.

“GCCTCTTGCTCCCTATTGGTCTATTGCACTGCAGAGGCGATTGACAGCGTAGAATGAAGG” registered a binding signal (PBM z-score against 500 random probes) of 0.5.

Sequence “GCAGCAGTGAGGACCAATGGGCAGTCCAGGAGGAAAGCGATTGACAGCGTAGAATGAAGG” gave a binding signal (PBM z-score against 500 random probes) of 0.28.

As to “GCTTTAGAAGAAAGGTTTCATTACTGAGAGCAGCCAGCGATTGACAGCGTAGAATGAAGG”, the binding signal (PBM z-score against 500 random probes) was -0.84.

The sequence “GCAGCCTCCTGTTGGGTGGTCTGGTCCACCTCCTCAGCGATTGACAGCGTAGAATGAAGG” yielded a binding signal (PBM z-score against 500 random probes) of -1.21.

On to “GCAAGGAATGTAATCTAACTCTGTATTCAAAGAAGAGCGATTGACAGCGTAGAATGAAGG”, for which the binding signal (PBM z-score against 500 random probes) was -0.36.

On to “GCATCTGGCATATGTTCACTCCATGTACCACAGATAGCGATTGACAGCGTAGAATGAAGG”, for which the binding signal (PBM z-score against 500 random probes) was -0.07.

Sequence “GCGCCTGTGGTTGACTGAATCCACAGATGTGGAACCGCGATTGACAGCGTAGAATGAAGG” had a binding signal (PBM z-score against 500 random probes) of -0.48.

The sequence “GCAACAAAGCCTGTATGACAGCACATCTGTGTACAGGCGATTGACAGCGTAGAATGAAGG” came in with a binding signal (PBM z-score against 500 random probes) of -0.99.

“GCGGCTGTTAGCGCTCATCTCTGTGTGCCTTCACAGGCGATTGACAGCGTAGAATGAAGG” gave a binding signal (PBM z-score against 500 random probes) of -1.11.

Sequence “GCCATCCTGATTCCAAAGCCTGGCAGAGACACAACCGCGATTGACAGCGTAGAATGAAGG” had a binding signal (PBM z-score against 500 random probes) of 0.1.

Turning to “GCATCTGCCTTGCTCTTTCTACCTTTCAGTGTCTTTGCGATTGACAGCGTAGAATGAAGG”, the binding signal (PBM z-score against 500 random probes) was -0.26.

For “GCTAACGAATGATCTTTCTAATGTGTTGTTGAATTCGCGATTGACAGCGTAGAATGAAGG”, the binding signal (PBM z-score against 500 random probes) is 0.02.

The next experiment deals with T2, RARg (Homo sapiens) (UniProt P13631).
T2 sequence: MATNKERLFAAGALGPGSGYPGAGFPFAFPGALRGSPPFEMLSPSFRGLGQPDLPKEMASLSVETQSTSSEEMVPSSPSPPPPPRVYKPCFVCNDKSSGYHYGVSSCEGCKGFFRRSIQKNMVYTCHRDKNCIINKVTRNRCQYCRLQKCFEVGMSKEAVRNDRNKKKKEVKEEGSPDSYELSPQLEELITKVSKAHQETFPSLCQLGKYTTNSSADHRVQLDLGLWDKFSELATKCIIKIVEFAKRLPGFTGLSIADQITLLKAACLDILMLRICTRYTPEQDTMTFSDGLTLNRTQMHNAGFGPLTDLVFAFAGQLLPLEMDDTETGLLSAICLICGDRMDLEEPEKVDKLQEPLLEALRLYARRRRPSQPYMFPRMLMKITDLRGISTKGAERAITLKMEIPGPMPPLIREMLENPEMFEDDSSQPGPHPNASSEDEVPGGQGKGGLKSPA
Conditions: 270 nM, no RXRa, PBS pH 7.4, 2% milk, 0.02% Triton X-100, 1 mM DTT, BSA, 0.4 mg/ml salmon testes DNA; double strand, one strand shown.
Regarding “GCTTCCTTTCCATGTTTAGTGCTTCCTTCAGGAGCTGCGATTGACAGCGTAGAATGAAGG”, the binding signal (PBM z-score against 500 random probes) is -0.24.

As for “GCAGGAGAAACCCACGCTGGTGTCATCACAGGTTCAGCGATTGACAGCGTAGAATGAAGG”, the binding signal (PBM z-score against 500 random probes) was found to be 0.41.

For the sequence “GCGTAAGACACCTTCCTAGGAAGAGAACAGCAGAATGCGATTGACAGCGTAGAATGAAGG”, the binding signal (PBM z-score against 500 random probes) was -0.12.

Sequence “GCGCAGTGGGTGATGATGTCACTGGTTAACGTGGCTGCGATTGACAGCGTAGAATGAAGG” had a binding signal (PBM z-score against 500 random probes) of 0.04.

“GCTCTCTCACTCTGCTCTTGTTCTCTCGCTCTTTCTGCGATTGACAGCGTAGAATGAAGG” had a binding signal (PBM z-score against 500 random probes) of -0.72.

Sequence “GCGAGATCAAGACCATCCTGGCTAACATGGTGAAACGCGATTGACAGCGTAGAATGAAGG” displayed a binding signal (PBM z-score against 500 random probes) of -0.01.

The values are drawn from PMC6555819.
